# Measurements as given in paper PMC3630089, “ATP-Dependent Chromatin Remodeling by Cockayne Syndrome Protein B and NAP1-Like Histone Chaperones Is Required for Efficient Transcription-Coupled DNA Repair” (PLoS Genetics, 2013).
# The chains behind the UniProt entries cited, without tags or fusion partners. Where a name states a change or a piece, a line headed by the entry shows the natural chain unless it says otherwise. A line that says so, or that is headed by a name, gives the form on record, which may keep a tag or linker.
# UniProt Q03468: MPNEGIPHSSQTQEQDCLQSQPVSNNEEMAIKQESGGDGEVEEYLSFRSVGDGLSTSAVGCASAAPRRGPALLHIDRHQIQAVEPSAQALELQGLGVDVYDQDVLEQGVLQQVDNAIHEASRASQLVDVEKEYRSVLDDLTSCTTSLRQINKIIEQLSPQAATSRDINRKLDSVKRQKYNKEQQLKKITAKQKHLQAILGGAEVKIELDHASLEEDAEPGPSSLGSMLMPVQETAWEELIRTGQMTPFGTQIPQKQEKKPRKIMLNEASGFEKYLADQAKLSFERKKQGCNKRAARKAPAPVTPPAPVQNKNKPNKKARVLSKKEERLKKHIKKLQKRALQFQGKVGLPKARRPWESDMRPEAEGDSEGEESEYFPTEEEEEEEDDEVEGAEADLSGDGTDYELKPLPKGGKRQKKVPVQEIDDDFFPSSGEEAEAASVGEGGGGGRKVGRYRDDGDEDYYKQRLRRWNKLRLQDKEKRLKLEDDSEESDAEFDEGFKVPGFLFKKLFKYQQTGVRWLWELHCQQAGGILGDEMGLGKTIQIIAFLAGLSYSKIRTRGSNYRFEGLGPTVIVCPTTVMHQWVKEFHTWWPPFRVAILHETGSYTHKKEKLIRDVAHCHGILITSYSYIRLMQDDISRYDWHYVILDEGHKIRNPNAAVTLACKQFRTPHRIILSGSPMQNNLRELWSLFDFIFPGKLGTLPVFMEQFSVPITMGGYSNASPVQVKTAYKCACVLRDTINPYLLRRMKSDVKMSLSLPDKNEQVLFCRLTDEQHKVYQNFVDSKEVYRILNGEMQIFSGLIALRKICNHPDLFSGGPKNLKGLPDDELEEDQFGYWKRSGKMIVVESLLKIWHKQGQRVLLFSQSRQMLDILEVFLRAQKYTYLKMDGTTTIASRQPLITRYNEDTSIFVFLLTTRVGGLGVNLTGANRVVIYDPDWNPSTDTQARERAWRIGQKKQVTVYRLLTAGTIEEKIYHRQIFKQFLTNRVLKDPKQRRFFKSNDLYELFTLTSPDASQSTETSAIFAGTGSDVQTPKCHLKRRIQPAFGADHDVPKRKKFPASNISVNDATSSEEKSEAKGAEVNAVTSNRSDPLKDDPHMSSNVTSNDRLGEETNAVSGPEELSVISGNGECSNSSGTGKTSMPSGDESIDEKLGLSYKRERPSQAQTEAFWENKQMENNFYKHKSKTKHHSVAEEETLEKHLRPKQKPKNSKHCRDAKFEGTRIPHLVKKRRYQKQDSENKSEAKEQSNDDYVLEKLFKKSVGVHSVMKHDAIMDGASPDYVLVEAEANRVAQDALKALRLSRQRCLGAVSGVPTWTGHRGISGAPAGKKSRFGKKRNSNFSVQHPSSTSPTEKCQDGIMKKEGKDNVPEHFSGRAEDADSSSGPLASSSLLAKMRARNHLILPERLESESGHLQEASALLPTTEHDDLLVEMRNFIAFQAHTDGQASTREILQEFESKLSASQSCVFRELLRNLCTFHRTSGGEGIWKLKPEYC
# CSBΔN1 stably expressed in CS1AN-Sv cells (Q03468, form named): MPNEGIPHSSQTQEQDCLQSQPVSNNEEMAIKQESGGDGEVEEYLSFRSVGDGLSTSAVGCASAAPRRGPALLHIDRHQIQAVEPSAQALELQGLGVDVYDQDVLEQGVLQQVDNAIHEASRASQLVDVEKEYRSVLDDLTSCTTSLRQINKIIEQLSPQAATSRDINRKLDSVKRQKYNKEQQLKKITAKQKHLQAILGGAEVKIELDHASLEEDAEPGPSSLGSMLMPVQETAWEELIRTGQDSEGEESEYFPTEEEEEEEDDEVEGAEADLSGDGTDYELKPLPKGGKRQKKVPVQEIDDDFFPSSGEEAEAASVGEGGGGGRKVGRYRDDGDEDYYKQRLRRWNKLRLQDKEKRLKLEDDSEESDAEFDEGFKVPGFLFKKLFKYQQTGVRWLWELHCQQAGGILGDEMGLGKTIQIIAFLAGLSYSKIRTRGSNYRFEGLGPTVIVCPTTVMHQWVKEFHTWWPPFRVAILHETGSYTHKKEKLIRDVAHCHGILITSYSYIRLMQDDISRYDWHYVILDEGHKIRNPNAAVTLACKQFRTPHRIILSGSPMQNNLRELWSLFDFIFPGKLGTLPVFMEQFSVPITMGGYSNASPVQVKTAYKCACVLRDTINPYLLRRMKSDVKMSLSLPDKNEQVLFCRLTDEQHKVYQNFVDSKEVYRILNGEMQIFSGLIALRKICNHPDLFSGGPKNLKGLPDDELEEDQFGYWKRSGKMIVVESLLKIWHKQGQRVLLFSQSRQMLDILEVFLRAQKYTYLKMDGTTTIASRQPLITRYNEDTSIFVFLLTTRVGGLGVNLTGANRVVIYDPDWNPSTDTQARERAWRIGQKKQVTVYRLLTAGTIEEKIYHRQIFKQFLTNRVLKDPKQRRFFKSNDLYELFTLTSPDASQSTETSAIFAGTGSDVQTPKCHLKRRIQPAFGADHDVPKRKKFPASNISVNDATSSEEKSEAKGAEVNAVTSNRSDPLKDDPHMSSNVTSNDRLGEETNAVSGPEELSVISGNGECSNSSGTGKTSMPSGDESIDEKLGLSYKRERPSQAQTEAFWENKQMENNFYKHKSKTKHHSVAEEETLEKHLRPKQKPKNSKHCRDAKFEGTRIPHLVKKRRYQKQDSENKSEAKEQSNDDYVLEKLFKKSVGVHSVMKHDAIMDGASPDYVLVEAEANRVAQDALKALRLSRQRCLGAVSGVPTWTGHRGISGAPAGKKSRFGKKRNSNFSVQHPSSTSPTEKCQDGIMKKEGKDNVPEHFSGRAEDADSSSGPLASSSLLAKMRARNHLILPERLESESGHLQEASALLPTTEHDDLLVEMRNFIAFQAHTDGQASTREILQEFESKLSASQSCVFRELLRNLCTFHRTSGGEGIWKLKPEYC
# UniProt P19447: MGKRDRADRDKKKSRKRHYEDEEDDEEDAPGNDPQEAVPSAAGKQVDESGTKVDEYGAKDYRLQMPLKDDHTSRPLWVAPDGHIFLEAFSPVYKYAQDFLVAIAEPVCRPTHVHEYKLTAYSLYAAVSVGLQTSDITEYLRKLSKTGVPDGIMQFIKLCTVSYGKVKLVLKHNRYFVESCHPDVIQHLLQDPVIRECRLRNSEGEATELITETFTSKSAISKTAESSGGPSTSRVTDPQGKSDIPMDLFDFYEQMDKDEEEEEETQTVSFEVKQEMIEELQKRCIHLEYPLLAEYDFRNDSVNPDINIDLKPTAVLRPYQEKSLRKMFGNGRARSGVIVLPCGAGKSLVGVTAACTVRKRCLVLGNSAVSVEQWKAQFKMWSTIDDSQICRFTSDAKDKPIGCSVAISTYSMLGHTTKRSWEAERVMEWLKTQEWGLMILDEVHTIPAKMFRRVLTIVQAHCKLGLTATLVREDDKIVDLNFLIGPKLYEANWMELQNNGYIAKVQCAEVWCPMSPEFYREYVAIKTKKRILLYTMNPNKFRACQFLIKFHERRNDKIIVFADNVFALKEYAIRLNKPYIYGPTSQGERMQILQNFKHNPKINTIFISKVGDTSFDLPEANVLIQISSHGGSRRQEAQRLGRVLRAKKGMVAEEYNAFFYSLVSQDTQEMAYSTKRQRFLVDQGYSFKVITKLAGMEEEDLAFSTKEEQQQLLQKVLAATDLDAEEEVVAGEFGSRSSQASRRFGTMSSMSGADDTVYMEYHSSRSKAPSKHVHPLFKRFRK
# UniProt P23025: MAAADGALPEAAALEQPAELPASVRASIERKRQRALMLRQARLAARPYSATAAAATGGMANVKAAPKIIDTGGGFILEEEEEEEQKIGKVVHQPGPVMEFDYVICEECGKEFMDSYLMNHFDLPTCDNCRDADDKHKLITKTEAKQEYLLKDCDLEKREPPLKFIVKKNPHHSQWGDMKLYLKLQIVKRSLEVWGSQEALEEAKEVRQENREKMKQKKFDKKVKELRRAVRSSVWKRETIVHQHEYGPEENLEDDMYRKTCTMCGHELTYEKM
# UniProt Q16531: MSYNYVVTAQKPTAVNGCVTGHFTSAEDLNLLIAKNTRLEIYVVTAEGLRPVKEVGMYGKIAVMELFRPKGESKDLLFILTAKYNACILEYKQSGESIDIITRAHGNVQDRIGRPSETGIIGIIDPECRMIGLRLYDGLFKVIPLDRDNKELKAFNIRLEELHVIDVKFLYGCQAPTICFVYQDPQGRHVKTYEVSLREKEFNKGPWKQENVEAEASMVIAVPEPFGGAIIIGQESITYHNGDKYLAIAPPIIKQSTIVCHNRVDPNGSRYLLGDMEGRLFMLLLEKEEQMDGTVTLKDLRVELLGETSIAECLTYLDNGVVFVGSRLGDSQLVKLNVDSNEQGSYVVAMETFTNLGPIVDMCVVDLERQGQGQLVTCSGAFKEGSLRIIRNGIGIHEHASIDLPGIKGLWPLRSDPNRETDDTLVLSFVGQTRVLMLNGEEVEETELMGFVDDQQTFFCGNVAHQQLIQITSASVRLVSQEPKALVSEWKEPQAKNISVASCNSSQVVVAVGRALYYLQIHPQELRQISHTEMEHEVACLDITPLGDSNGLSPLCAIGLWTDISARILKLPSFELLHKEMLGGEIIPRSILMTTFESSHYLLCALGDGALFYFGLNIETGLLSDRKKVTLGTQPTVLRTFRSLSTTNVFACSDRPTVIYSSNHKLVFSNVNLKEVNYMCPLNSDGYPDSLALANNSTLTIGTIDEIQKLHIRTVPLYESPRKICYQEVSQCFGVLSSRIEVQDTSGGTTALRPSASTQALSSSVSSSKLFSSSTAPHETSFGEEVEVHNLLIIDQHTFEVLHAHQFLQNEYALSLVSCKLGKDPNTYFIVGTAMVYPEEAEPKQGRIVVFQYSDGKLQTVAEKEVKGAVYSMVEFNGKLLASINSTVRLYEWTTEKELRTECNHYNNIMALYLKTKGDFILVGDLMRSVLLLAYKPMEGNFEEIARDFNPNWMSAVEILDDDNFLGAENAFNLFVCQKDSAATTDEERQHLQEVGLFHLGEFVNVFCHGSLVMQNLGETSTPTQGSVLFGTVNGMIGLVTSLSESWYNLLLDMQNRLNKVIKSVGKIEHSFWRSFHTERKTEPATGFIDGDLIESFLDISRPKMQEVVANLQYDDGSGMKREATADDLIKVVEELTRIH
# Results are given in words; binding and its absence hold for the method and conditions named. Binding seen in cells or lysates may run through a third protein. Some entries that bind do so weakly or less than the wild type. For some of these results: Tags and fused reporters may be left off the sequences shown.
# How the values were obtained:
# [1] = target: CSBΔN1 stably expressed in CS1AN-Sv cells (human) (UniProt Q03468); assay: ChIP-western (immunoprecipitation after formaldehyde cross-linking); CS1AN-Sv cells expressing CSB or CSBΔN1, UV 25 J/m^2 (or 6 J/m^2, chromatin-enriched fraction), 1 hour recovery, fixed with 1% formaldehyde for 10 min, ChIP with anti-CSB antibodies, reverse-crosslinked, Western blot
# [2] = target: CSB stably expressed in CS1AN-Sv cells (human) (UniProt Q03468); assay: as above
# [3] = target: CSBΔN1 stably expressed in CS1AN-Sv cells (human) (UniProt Q03468); assay: condition: only cells without UV irradiation (mock treated); ChIP-western (immunoprecipitation after formaldehyde cross-linking); as a6 but cells mock treated (no UV irradiation)
# [4] = target: CSB stably expressed in CS1AN-Sv cells (human) (UniProt Q03468); assay: as above
# [5] = target: T1, NAP1L1 (NAP1-like histone chaperone), endogenous in CS1AN-Sv cells (human) (UniProt P55209); assay: co-IP; CS1AN-Sv cells stably expressing CSB or CSBΔN1, with or without UV treatment (100 J/m^2); immunoprecipitation with an anti-NAP1L1 antibody
# T1 sequence: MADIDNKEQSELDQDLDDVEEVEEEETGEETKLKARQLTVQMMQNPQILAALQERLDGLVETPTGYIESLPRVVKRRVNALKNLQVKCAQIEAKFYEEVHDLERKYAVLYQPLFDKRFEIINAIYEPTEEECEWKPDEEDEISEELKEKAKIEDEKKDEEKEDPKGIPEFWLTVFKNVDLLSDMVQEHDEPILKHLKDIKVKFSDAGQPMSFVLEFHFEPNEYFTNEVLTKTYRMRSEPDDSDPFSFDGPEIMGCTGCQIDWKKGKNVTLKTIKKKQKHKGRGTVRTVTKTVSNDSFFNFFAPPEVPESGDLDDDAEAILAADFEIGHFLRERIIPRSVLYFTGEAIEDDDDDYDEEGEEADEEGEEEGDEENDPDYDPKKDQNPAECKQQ
# [6] = target: T2, NAP1L1, endogenous in HeLa cells (human (endogenous in HeLa)) (UniProt P55209); assay: co-IP; endogenous proteins from chromatin-enriched fractions of UV-irradiated HeLa cells; anti-CSB, anti-NAP1L1 or anti-NAP1L4 antibodies cross-linked to Protein A/G agarose beads; Western blot
# T2 sequence: T1 sequence
# [7] = target: T3, NAP1L4, endogenous in HeLa cells (human (endogenous in HeLa)) (UniProt Q99733); assay: as above
# T3 sequence: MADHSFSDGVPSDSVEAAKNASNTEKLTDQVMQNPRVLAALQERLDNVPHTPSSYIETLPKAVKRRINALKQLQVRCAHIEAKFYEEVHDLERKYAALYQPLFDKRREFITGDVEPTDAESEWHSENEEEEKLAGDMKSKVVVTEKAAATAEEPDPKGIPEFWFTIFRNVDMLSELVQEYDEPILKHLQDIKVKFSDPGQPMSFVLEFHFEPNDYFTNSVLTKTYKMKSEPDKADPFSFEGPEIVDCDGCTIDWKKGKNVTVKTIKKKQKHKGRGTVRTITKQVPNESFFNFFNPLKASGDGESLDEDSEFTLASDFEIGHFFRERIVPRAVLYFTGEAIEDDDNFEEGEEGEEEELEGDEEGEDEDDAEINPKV
# [8] = target: T2, NAP1L1, endogenous in HeLa cells (human (endogenous in HeLa)); assay: co-IP; nuclei from HeLa cells with or without UV treatment (100 J/m^2); immunoprecipitation with an anti-NAP1L1 antibody; Western blot
Substance,binding [1],binding [2],binding [3],binding [4],binding [5],binding [6],binding [7],binding [8]
DNA excision repair protein ERCC3 (from UniProt P19447 1-782),binds,binds,no binding,no binding,–,–,–,–
Xeroderma pigmentosum group A-complementing protein (XPA) (from UniProt P23025 1-273),binds,binds,no binding,no binding,–,–,–,–
CSB stably expressed in CS1AN-Sv cells (from UniProt Q03468 1-1493) (enzyme),–,–,–,–,binds,–,–,–
DNA damage-binding protein 1 (DDB1) (from UniProt Q16531 1-1140),binds,binds,no binding,no binding,–,–,–,–
"CSB, endogenous in HeLa cells (from UniProt Q03468 1-1493) (enzyme)",–,–,–,–,–,binds,binds,binds
